The whole screen tested about 310,000 compounds, of which about 2,200 (0.71%) showed an effect of 50% or more. Effects have a minus sign here. This is one part of the list.
biological target: human ether-à-go-go-related gene (hERG) potassium channel (human, UniProt Q12809); assay: primary screen, population patch clamp on CHO cells stably expressing hERG
Sequence (Q12809 whole entry, looked up): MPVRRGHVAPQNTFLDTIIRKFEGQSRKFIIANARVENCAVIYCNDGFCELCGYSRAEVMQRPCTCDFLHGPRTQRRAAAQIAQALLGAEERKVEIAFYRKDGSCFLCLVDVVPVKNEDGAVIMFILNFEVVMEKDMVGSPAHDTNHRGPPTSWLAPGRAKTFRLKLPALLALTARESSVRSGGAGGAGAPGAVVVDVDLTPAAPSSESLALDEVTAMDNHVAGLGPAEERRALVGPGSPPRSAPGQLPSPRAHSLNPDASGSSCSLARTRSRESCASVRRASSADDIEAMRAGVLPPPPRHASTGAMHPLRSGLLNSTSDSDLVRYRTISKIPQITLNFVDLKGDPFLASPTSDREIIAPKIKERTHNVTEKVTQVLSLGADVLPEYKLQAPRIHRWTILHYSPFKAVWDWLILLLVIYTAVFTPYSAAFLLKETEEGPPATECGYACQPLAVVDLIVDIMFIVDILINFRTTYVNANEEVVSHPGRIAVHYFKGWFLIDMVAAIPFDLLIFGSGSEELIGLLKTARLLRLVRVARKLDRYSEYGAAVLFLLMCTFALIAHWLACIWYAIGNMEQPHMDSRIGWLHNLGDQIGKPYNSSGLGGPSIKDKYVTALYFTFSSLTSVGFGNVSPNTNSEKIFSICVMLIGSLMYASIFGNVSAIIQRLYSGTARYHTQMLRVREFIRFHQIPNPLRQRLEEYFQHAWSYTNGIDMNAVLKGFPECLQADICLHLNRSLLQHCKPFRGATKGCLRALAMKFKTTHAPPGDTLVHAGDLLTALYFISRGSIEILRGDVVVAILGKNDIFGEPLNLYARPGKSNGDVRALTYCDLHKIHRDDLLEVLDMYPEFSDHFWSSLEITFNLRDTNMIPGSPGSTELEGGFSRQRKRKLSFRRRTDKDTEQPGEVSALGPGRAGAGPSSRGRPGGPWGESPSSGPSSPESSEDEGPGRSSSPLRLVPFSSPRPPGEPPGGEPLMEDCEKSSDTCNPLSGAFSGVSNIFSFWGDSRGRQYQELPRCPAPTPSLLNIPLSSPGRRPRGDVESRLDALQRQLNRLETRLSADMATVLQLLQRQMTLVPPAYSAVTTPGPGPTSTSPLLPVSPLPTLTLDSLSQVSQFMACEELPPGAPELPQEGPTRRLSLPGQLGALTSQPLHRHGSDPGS

Row | SMILES | hERG current change (%, negative = inhibition) at 1uM
1 | CCOC(=O)C1CCN(C(=O)c2cn(CCOC)c(=O)c3c2c2ccccc2n3C)CC1 | -5.83%
2 | CCOC(=O)c1cnc(-n2nc(C)cc2C)nc1-n1nc(C)cc1C | -1.61%
3 | CC(=O)Nc1ccc(S(=O)(=O)N2CCN(c3cc(C)nc4ncnn34)CC2)cc1 | -9.05%
4 | COc1ccc(C(=O)Nc2ccc(NC(=O)C(C)C)nc2)cc1 | 7.42%
5 | Cc1cc(-c2ccccc2)nc(SCc2ccc(C(=O)O)o2)n1 | 1.35%
6 | CC(C)N1C(=O)C2C(C(=O)NC3CCCCC3)C3C=CC2(O3)C1C(=O)NC1CCCC1 (centres unmarked) | 4.71%
7 | CCCCc1nc2c(C)c(N)cnc2n1Cc1cccc([N+](=O)[O-])c1 | 5.37%
8 | CS(=O)(=O)N(CC(=O)N1CCCC1)Cc1ccccc1 | 9.01%
9 | COc1ccc(CCNC(=O)C2CCCN(S(C)(=O)=O)C2)cc1 (centres unmarked) | 1.53%
10 | O=C(Cc1ccc(S(=O)(=O)N2CCCC2)s1)NC1CCCCCC1 | -10.3%
11 | CSc1ncc(C(=O)Nc2ccc(C(C)=O)cc2)c(-c2ccccc2)n1 | 7.32%
12 | COc1cc2[nH]c3ccccc3c2cc1C | 10.5%
13 | CCOC(=O)CCCNC(=O)COC(=O)c1cccc(F)c1 | 16.6%
14 | Cc1cc(C)cc(NC(=S)NCCc2ccc(S(N)(=O)=O)cc2)c1 | 2.42%
15 | Cn1c2ccccc2c(=O)c2c(=O)n(-c3ccccc3)c(C3CCCCC3)nc21 | 9.09%
16 | CC(=O)Nc1ccc(C(=O)C(Cc2ccccc2)N(C)C)cc1.Cl (centres unmarked) | 15.3%
17 | CCC(C)(C)C1CCC2(CC1)NC(=O)N(CC(=O)N(C)Cc1ccc3c(c1)OCCO3)C2=O (centres unmarked) | 10.3%
18 | CCOc1ccccc1NC(=O)CC1NCCNC1=O (centres unmarked) | 3.53%
19 | CC1CN(C(=O)c2cn3ccccc3n2)CC(C)O1 (centres unmarked) | -3.23%
20 | Cc1nn(Cc2ccccc2)c(C)c1NS(=O)(=O)c1ccccc1 | 17.9%

Row | SMILES | hERG current change (%, negative = inhibition) at 1uM
21 | O=C(Oc1ccc(F)cc1)N1CCOCC1 | 9.32%
22 | CCCn1nc(NS(=O)(=O)c2cccc3nonc23)c2cc3cc(C)ccc3nc21 | 4.58%
23 | O=C(Nc1ccc(F)cc1)c1ccc2nsnc2c1 | 3.1%
24 | CCCNC(=O)C1CNc2ccccc2O1 (centres unmarked) | 14.6%
25 | Cc1cc(NC(=O)c2ccccc2F)n(-c2nc3ccccc3[nH]2)n1 | 12%
26 | N#C/C(=C\c1ccc(O)c(O)c1)C(=O)Nc1cccc2ncccc12 | 15.7%
27 | Cc1ccc(CNC(=O)CCC(=O)Nc2nnc(C(C)C)s2)cc1 | 18.6%
28 | Cc1nn(Cc2ccc([N+](=O)[O-])cc2)c(=O)n1-c1c(F)cccc1F | -10.9%
29 | CCCc1cc2c(OC(=O)CC)c(-c3ccc(C(=O)OCC)o3)c(=O)oc2cc1OC | 9.96%
30 | COc1cc(-c2nnc(SCC(=O)O)n2-c2ccccc2)cc(OC)c1OC | 24.8%
31 | CCOC(=O)Cc1csc(N/N=C\c2ccc(N(C)C)cc2)n1 | 8.06%
32 | Cc1ccc(S(=O)(=O)Nc2ccc3c(c2)CCC3)cc1 | 8.07%
33 | O=C(Cn1cnc2c(nnn2Cc2ccccc2)c1=O)NCc1ccco1 | 8.24%
34 | CCOC(=O)C1=NN(c2ccccc2C)C2=NC(C)=C(C(=O)OC)C(c3cccc(OC)c3)N12 (centres unmarked) | 12.6%
35 | c1ccc(N2CCN(c3c4c(nc5ncnn35)CCC4)CC2)cc1 | -22.2%
36 | Nc1nc(NS(=O)(=O)c2ccc(Cl)cc2)nn1-c1ccccc1 | -3.97%
37 | O=C(Nc1ccc2c(c1)CCC2)C1CCN(c2ncccn2)CC1 | 13%
38 | CCCC1=C(C(=O)OCC)C(c2ccc(O)cc2)n2ncnc2N1 (centres unmarked) | 3.94%
39 | CC(C)N(Cc1nc(-c2ccccc2)no1)C(=O)COc1ccccc1 | 0.0963%
40 | CC(C)C(=O)Nc1ccc(Sc2ccc(F)cc2)cc1 | 7.46%

Row | SMILES | hERG current change (%, negative = inhibition) at 1uM
41 | CCOC(=O)c1sc(NC(=S)NC(=O)C2CCCC2)cc1C | 9.85%
42 | Cc1ccc(Cn2nnnc2CN2CCC(NC(=O)C(C)(C)C)CC2)cc1.Cl | 7.71%
43 | Cc1ccc(N2CCN(C(=S)Nc3ccc(Cl)cc3)CC2)cc1 | 13.4%
44 | COc1ccccc1N1CCN(CCCn2c(=S)[nH]c3ccccc3c2=O)CC1 | -11.9%
45 | CCN1CCN(C(c2cccs2)C(C)NC(=S)Nc2cc(C)ccc2C)CC1 (centres unmarked) | -12%
46 | O=[N+]([O-])/C(C(Cl)=C(Cl)Cl)=C(/NC1CC1)Sc1ccccc1 | 11.7%
47 | Clc1ccc(-c2nnc(CSc3nnc(-c4cccs4)o3)o2)cc1 | 4.06%
48 | COc1cccc(CNS(=O)(=O)/C=C/c2ccc(OC)c(OC)c2)c1 | 5.94%
49 | COc1cccc(CN2CCNC(=O)C2CC(=O)N(C)C2CCCCC2)c1OC (centres unmarked) | 14.4%
50 | CCCc1c(NC(=O)Nc2ccc(Cl)cc2Cl)cnn1-c1ccccc1 | 13.7%
51 | CC(C)N=C1SCC(C)(/C=N/O)S1 (centres unmarked) | -1.16%
52 | CC1=NNC(=O)C1CCC(=O)N/N=C/c1ccc(Cl)cc1Cl (centres unmarked) | 12.6%
53 | C=C(C)Cn1c(N)cc(=O)nc1SCC(=O)Nc1cccc(C(F)(F)F)c1 | 13%
54 | CC1CCCCN1Cc1c[nH]c2ccccc12 (centres unmarked) | 15.3%
55 | CCc1ccc(NS(=O)(=O)c2ccc3[nH]c(=O)[nH]c3c2)cc1 | 9.43%
56 | Cc1cc(NC(=O)COC(=O)C(Cc2ccccc2)NC(=O)c2ccco2)no1 (centres unmarked) | 13.5%
57 | CCCC(CCC)n1[nH]c(=O)c2c(C)cc(C)nc21 | 3.74%
58 | CCNC(=O)Nc1ccc(-n2nc(C)c(C(=O)OCC)c2C)nc1 | 14.1%
59 | O=C(NNC(=O)C1CCN(S(=O)(=O)c2ccccc2)CC1)c1ccccc1O | -13.4%

Reference: paper PMC4336329 (PLoS ONE, 2015)
